{"source": "PubChem BioAssay AID1159614", "about": "(National Center for Advancing Translational Sciences (NCATS), 2016)", "note": "In all, about 45,000 compounds went through this assay and about 65 (0.1%) were called active. The call rests on the fitted dose curve; in most records, active means well fitted activation curve with a large enough effect; inconclusive means small, poorly fitted or top-dose-only effect; inactive means no such curve, though single readings can be large or run the other way. This is one part of the list.", "data": [{"biological_target": "Galactocerebrosidase (Homo sapiens) (UniProt P54803)", "sequence (P54803 whole entry, looked up)": "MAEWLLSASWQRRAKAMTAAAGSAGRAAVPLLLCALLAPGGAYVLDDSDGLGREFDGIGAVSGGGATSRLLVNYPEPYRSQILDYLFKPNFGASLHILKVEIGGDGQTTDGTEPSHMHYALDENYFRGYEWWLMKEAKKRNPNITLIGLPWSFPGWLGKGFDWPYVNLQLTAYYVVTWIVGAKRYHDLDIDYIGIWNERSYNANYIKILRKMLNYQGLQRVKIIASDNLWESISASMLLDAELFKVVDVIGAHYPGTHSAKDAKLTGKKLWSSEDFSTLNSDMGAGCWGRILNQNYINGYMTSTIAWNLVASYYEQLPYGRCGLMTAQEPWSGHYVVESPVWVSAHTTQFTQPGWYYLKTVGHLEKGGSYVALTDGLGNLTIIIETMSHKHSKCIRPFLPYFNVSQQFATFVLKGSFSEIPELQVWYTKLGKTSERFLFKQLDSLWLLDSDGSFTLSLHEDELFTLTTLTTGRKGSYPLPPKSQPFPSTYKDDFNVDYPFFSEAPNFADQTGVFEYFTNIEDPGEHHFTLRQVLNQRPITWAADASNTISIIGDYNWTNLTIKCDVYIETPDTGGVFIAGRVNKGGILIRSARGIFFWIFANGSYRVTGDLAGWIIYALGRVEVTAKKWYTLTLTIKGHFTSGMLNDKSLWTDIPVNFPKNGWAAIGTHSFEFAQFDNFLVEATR", "assay": "A Novel Cell-Based Assay to Identify Small Molecules for B -Galactocerebrosidase; further: 0% is about no effect; nearly all actives have a fitted effect of over 65% in size", "conditions": "145M-Twi-hGALC-G270D cells (Twitcher mouse brain line with human GALC G270D), HMU-beta-Gal fluorescence, 48 h; series mostly up to 57.5 µM; activation: at the top concentration", "procedure,_shortened": "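Fluorescence readout: HMU-β-gal cleavage by mutant GALC (0.1 mM final, citrate/phosphate pH 5.2 with 1 mg/mL taurocholate), stopped with carbonate/bicarbonate plus Triton X-100. Cells: murine Twitcher 145M-Twi expressing human G270D GALC; qHTS for activators.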", "values": [{"smiles": "COc1cccc(C2Nc3ccccc3-c3nnc(SCc4ccccc4)nc3O2)c1OC", "note": "(centres undefined)", "activation": "inactive: -16.4%"}, {"smiles": "O=C(Nc1ccc(F)c(Cl)c1)C1CCCN1S(=O)(=O)c1ccc(F)cc1", "note": "(centres undefined)", "activation": "inactive: -11.1%"}, {"smiles": "Cc1ccc(S(=O)(=O)c2nc(-c3ccccc3)oc2SCC(=O)NC2CCCCC2)cc1", "activation": "inactive: -4.15%"}, {"smiles": "O=C(Cn1c(=O)ccc2cc(S(=O)(=O)N3CCCC3)ccc21)NCc1ccc(F)cc1", "activation": "inactive: -22.5%"}, {"smiles": "COc1ccc(N(CC(=O)N2CCN(c3cccc(OC)c3)CC2)S(=O)(=O)c2c(C)noc2C)cc1", "activation": "inactive: -6.82%"}, {"smiles": "CCOC(=O)C1=C(CS(=O)(=O)c2ccc(C)c(C)c2)NC(=O)NC1c1ccccc1OCC", "note": "(centres undefined)", "activation": "inactive: -5.03%"}, {"smiles": "CCOc1ccc(NC(=O)Cn2c(=O)n(Cc3nc(-c4ccccc4)no3)c(=O)c3ccccc32)cc1", "activation": "inactive: -9.77%"}, {"smiles": "CN1C(=O)c2ccccc2Sc2ccc(NC(=O)COc3ccc(Cl)cc3)cc21", "activation": "inactive: -4.81%"}, {"smiles": "COCCNc1ccc(-c2nc(-c3cccc(C)c3)no2)cc1[N+](=O)[O-]", "activation": "inactive: -17.4%"}, {"smiles": "CN1C(C)(C)CCCC1(C)C", "activation": "inactive: -1.46%"}, {"smiles": "Cn1c(-n2cccc2)c(-c2c(-c3ccc(F)cc3)[nH]c3c2c(=O)[nH]c(=O)n3C)c(=O)[nH]c1=O", "activation": "inactive: 6.43%"}, {"smiles": "CC1CCCN(C(=O)Cn2c(=O)n(CC3CCC(C(=O)NC(C)C)CC3)c(=O)c3sccc32)C1", "note": "(centres undefined)", "activation": "inactive: -20.4%"}, {"smiles": "COc1cc(OC)c(NC(=O)c2ccc3c(Cl)c4c(nc3c2)CCCC4)cc1Cl", "activation": "inactive: -7.54%"}, {"smiles": "COc1ccc(CCNC(=O)CSCc2nc(-c3ccc(OC)c(OC)c3)oc2C)cc1OC", "activation": "inactive: -17.7%"}, {"smiles": "COc1cccc(OC)c1Cn1nnc2c(=O)[nH]c(C3CCN(C(=O)c4ccccc4)CC3)nc21", "activation": "inactive: -11%"}, {"smiles": "COc1ccc(-n2ncc3c2ncn2nc(-c4ccc(Cl)cc4Cl)nc32)cc1", "activation": "inactive: -17.7%"}, {"smiles": "Cc1ccc(NC(=O)c2ccc(F)c(S(=O)(=O)N3CCc4ccccc4C3)c2)cc1F", "activation": "inactive: -19.4%"}, {"smiles": "Cc1ccc(-n2c(SCC(=O)N3CCC(C)CC3)nc3c([nH]c4ccccc43)c2=O)cc1", "activation": "inactive: -11.2%"}, {"smiles": "COc1cccc(-c2ccnc3[nH]n(-c4ccccc4)c(=O)c23)c1", "activation": "inactive: 2.48%"}, {"smiles": "COc1ccc(Cl)cc1NC(=O)CSc1cn(CC(=O)N2CCCC2)c2ccccc12", "activation": "inactive: -9.72%"}, {"smiles": "Cc1cc(NC(=O)CN2C(=O)CSc3ccc(S(=O)(=O)N(C)C)cc32)ccc1Br", "activation": "inactive: -16.2%"}, {"smiles": "CSc1ccc(CCNC(=O)c2ccc3c(c2)nc2n3CCOC2)cc1", "activation": "inactive: 1.96%"}, {"smiles": "CC1(C)Oc2ccc(C#N)cc2[C@@H](N2CCCC2=O)[C@@H]1O", "activation": "inactive: -8.55%"}, {"smiles": "CCOC(=O)c1c(NC(=O)c2nc(SC)ncc2Cl)sc(C)c1C", "activation": "inactive: -19.2%"}, {"smiles": "CCOC(=O)c1ccc(NC(=O)CN2C(=O)CC(c3ccc(C)c(C)c3)=Nc3ccccc32)cc1", "activation": "inactive: -20.5%"}, {"smiles": "Cc1c(Cl)cccc1NC(=O)NCCOCCn1c(=O)oc2ccccc21", "activation": "inactive: -3.5%"}, {"smiles": "CCOc1ccc(CCNC(=O)c2ccc3c(c2)N(Cc2cccc(Cl)c2)C(=O)c2ccccc2S3(=O)=O)cc1OCC", "activation": "inactive: -7.62%"}, {"smiles": "CCOC(=O)c1scc(-c2ccc(C)cc2)c1S(=O)(=O)Nc1ccc(F)c(F)c1", "activation": "inactive: -1.78%"}, {"smiles": "Cn1c(=O)n(CCCc2ccccc2)c(=O)c2c1nc1n2CCN1c1ccccc1", "activation": "inactive: 8.85%"}, {"smiles": "CCN(Cc1ccccc1)C(=O)CCS(=O)(=O)c1ccc2c(c1)oc(=O)n2C", "activation": "inactive: -12%"}, {"smiles": "COc1ccc2c(c1)c(=O)c(C(=O)c1ccc(Cl)cc1)cn2CC(=O)Nc1ccc2c(c1)OCO2", "activation": "inactive: -12.4%"}, {"smiles": "CCc1ccc(N2C(=O)CS(=O)(=O)C23C(=O)N(Cc2ccccc2F)c2ccccc23)cc1", "note": "(centres undefined)", "activation": "inactive: -23%"}, {"smiles": "Cc1sc(NC(=O)COc2ccc(C(C)(C)C)cc2)c(C(=O)OC(C)C)c1C", "activation": "inactive: -1.17%"}, {"smiles": "CCOc1cc(C2c3c(oc4ccccc4c3=O)C(=O)N2Cc2ccccc2Cl)ccc1O", "note": "(centres undefined)", "activation": "inactive: -15.6%"}, {"smiles": "Cc1cc(-c2nc3ccccc3s2)ccc1NC(=O)c1cc(Cl)ccc1Cl", "activation": "inactive: 7.33%"}, {"smiles": "Cc1ccc(-c2noc(C3CC(=O)N(c4ccc5c(c4)OCCO5)C3)n2)cc1", "note": "(centres undefined)", "activation": "inactive: -15.8%"}, {"smiles": "COc1ccc(CNC(=O)C2CCN(S(=O)(=O)c3cn(C)cn3)CC2)cc1", "activation": "inactive: -11.9%"}, {"smiles": "COc1ccc(NC(=O)N(Cc2ccco2)C2CCN(C(C)=O)CC2)c(OC)c1", "activation": "inactive: 0.198%"}, {"smiles": "COc1cc(-c2noc(-c3cc(C)[nH]n3)n2)cc(OC)c1OC", "activation": "inactive: -16.6%"}, {"smiles": "COc1cccc(NC(=O)C2CCN(S(=O)(=O)c3cc(-c4noc(C)n4)ccc3C)CC2)c1", "activation": "inactive: -8.22%"}, {"smiles": "CCN1CCN(C(=O)c2cnn(-c3cccc(C)c3)c2C2CCN(C(=O)OC(C)(C)C)CC2)CC1", "activation": "inactive: 1.54%"}, {"smiles": "COc1cccc(CNC(=O)c2cccn2-c2nnc(N3CCCC3)s2)c1", "activation": "inactive: -18.7%"}, {"smiles": "Cc1onc(-c2c(Cl)cccc2Cl)c1C(=O)N[C@@H]1C(=O)N2[C@@H]1SC(C)(C)[C@@H]2C(=O)O", "activation": "inactive: -20.4%"}, {"smiles": "CCOc1ccc(NC(=O)c2cn3c4c(ccc(Cl)c4c2=O)OC(C)C3)cc1", "note": "(centres undefined)", "activation": "inactive: -19.1%"}, {"smiles": "COc1ccc(C2CC(=O)c3c([nH]c(C(=O)OCCOc4ccccc4)c3C)C2)cc1OC", "note": "(centres undefined)", "activation": "inactive: -12.9%"}, {"smiles": "CCn1cc(C(=O)N2CCN(c3ccccc3)CC2)c(=O)c2cc(S(=O)(=O)N3CCC(C)CC3)ccc21", "activation": "inactive: -11.4%"}, {"smiles": "COc1ccccc1CNC(=O)c1cc(-c2ccccc2)n[nH]1", "activation": "inactive: -8.01%"}, {"smiles": "O=C(CCS(=O)(=O)c1nc(-c2cccs2)cc(C(F)(F)F)n1)Nc1cccc(O)c1", "activation": "inactive: -12.6%"}, {"smiles": "Cn1c2ccc(F)cc2c2nnc(SCCN3CCCCC3)nc21", "activation": "inactive: 8.94%"}, {"smiles": "CCOc1ccccc1N(CC)C(=O)c1cc2ccc3cccnc3c2[nH]1", "activation": "inactive: -8.67%"}, {"smiles": "CC(C)NC(=O)c1sc2ncccc2c1-n1cccc1", "activation": "inactive: -20.1%"}, {"smiles": "CCOc1ccccc1NC(=O)CN1C(=O)C(=O)c2ccccc21", "activation": "inactive: -16.9%"}, {"smiles": "Cc1ccc2nc(NC(=O)CSc3ncc(C(=O)Nc4ccccc4)c(=O)n3C)sc2c1", "activation": "inactive: -13.8%"}, {"smiles": "Cc1ccc(N2C(=O)C(CC(=O)Nc3ccccc3)N(CCC3=CCCCC3)C2=O)cc1", "note": "(centres undefined)", "activation": "inactive: -35.3%"}, {"smiles": "O=C(NCCCN1CCN(c2cccc(Cl)c2)CC1)c1nnc(Cc2ccc(F)cc2Cl)o1", "activation": "inactive: -5.78%"}, {"smiles": "CCc1ccc(S(=O)(=O)c2cnc(SCC(=O)Nc3ccc(OC)cc3OC)[nH]c2=O)cc1", "activation": "inactive: -10.2%"}, {"smiles": "Cc1sc2c(c1C)c(=O)n(Cc1ccccc1)c(=O)n2CC(=O)Nc1cccc(Cl)c1", "activation": "inactive: -30.8%"}, {"smiles": "O=C(O)Cn1nc(N2CCN(c3ccccc3)CC2)ccc1=O", "activation": "inactive: -8.67%"}, {"smiles": "CCOc1ccc(CCNC(=O)c2sc3nc4n(c(=O)c3c2C)CCCC4)cc1", "activation": "inactive: -14.9%"}]}]}
